For 23 molecules, cytotoxicity call and growth inhibition call results are on record in the antibiotic and cytotoxicity screens of Wong et al. (2023).

One test has as its system HSkMC. Nature of the test: cytotoxicity call (relative viability < 0.9). The settings on record: 10 µM.
In a further test the test system is HepG2. Nature of the test: cytotoxicity call (relative viability < 0.9). Conditions: 10 µM.
Another test concerns S. aureus RN4220. Nature of the test: growth inhibition call (relative growth <= 0.2). Conditions: 50 µM.

This is one part of the list.

For `Cc1ccc(S(=O)(=O)N(C)C[C@@H]2Oc3ccc(NS(=O)(=O)c4c(C)noc4C)cc3CC(=O)N([C@H](C)CO)C[C@H]2C)cc1`, the cytotoxicity call with HSkMC and with HepG2 was “inactive” each time. Moreover, the growth inhibition call in the test on S. aureus RN4220 was “inactive”.
Consider `CCCC(=O)Nc1ccc2c(c1)OC[C@H](C)N(Cc1ccc(-c3ccccn3)cc1)C[C@H](C)[C@H](OC)CN(C)C2=O`, for which the cytotoxicity call in the test with HSkMC and in the test with HepG2 was “inactive” each time. In addition, the growth inhibition call in the test on S. aureus RN4220 was “inactive”.
In the case of `C[C@H]1CN([C@@H](C)CO)S(=O)(=O)c2ccc(-c3ccc(C(=O)N(C)C)cc3)cc2O[C@H]1CN(C)C(=O)Cc1ccccn1`, the cytotoxicity call in the test with HSkMC and in the test with HepG2 was “inactive” in each case. The growth inhibition call in the test with S. aureus RN4220 is “inactive”.
For `C[C@H](CO)N1C[C@H](C)[C@H](CN(C)S(=O)(=O)c2ccccc2C#N)OCc2cnnn2CCCC1=O`, the cytotoxicity call in the test with HSkMC and in the test with HepG2 was “inactive” in each case. Also, the growth inhibition call with S. aureus RN4220 was “inactive”.
In the case of `Cc1noc(C)c1NC(=O)Nc1ccc2c(c1)C(=O)N([C@@H](C)CO)C[C@@H](C)[C@@H](CN(C)CC1CCCCC1)OCCCC[C@H](C)O2`, the cytotoxicity call in the test with HSkMC and in the test on HepG2 was “inactive” each time. For the same molecule, the growth inhibition call in the test with S. aureus RN4220 was “inactive”.
Consider `CC(C)NC(=O)Nc1cccc2c1O[C@@H](CN(C)Cc1ccc(Oc3ccccc3)cc1)[C@@H](C)CN([C@H](C)CO)C2=O`, for which the cytotoxicity call in the test on HSkMC and in the test on HepG2 was “inactive” each time. In the test on S. aureus RN4220, the growth inhibition call was “inactive”.
Take `C[C@@H]1CN([C@@H](C)CO)C(=O)CCCn2nncc2CO[C@@H]1CN(C)Cc1ccc(C(=O)Nc2ccccc2N)cc1`: the cytotoxicity call in the test with HSkMC and with HepG2 was “inactive” throughout. Further, the growth inhibition call in the test with S. aureus RN4220 was “inactive”.
For the molecule `C[C@@H]1CN([C@H](C)CO)C(=O)Cc2cc(NC(=O)CCN3CCOCC3)ccc2O[C@@H]1CN(C)CC1CCCCC1`, the cytotoxicity call with HSkMC and in the test with HepG2 was “inactive” each time. Besides, in the test on S. aureus RN4220, the growth inhibition call was “inactive”.
Consider `C=CCOC(=O)[C@H]1[C@@H]2C(=O)O[C@@H](c3ccccc3)[C@@H](c3ccccc3)N2[C@@H](c2ccc(OCCOC(=O)[C@@H]3C[C@@H]4C(=O)N[C@@H](CCCC[N+](C)(C)C)C(=O)N4[C@@H]3c3ccc(O)cc3)cc2)[C@]12C(=O)Nc1ccccc12`, for which the cytotoxicity call in the test on HSkMC and in the test on HepG2 was “inactive” throughout. For the same molecule, in the test with S. aureus RN4220, the growth inhibition call is “inactive”.
Take `COCC(=O)N1C[C@H](C)[C@@H](OC)CN(C)C(=O)c2cc(NC(=O)c3ccc(F)cc3)ccc2OC[C@@H]1C`: the cytotoxicity call with HSkMC and in the test with HepG2 was “inactive” each time. Also, in the test on S. aureus RN4220, the growth inhibition call is “inactive”.
With `CCCC#Cc1ccc2c(c1)O[C@@H](CN(C)C(=O)c1cnccn1)[C@H](C)CN([C@H](C)CO)S2(=O)=O`, the cytotoxicity call with HSkMC and in the test with HepG2 was “inactive” each time. The growth inhibition call in the test on S. aureus RN4220 is “inactive”.
Turning to `CC[C@@H](C)CCCC(=O)N[C@@H](CCN)C(=O)N[C@H](C(=O)N[C@@H](CCN)C(=O)N[C@H]1CCNC(=O)[C@H]([C@@H](C)O)NC(=O)[C@H](CCN)NC(=O)[C@H](CCN)NC(=O)[C@H](CC(C)C)NC(=O)[C@@H](CC(C)C)NC(=O)[C@H](CCN)NC1=O)[C@@H](C)O`, the cytotoxicity call in the test on HSkMC and in the test with HepG2 was “inactive” each time. Besides, the growth inhibition call in the test on S. aureus RN4220 was “inactive”.
With `CC/C=C\C/C=C\C/C=C\C/C=C\C/C=C\CCCC(=O)O`, the cytotoxicity call in the test on HSkMC and with HepG2 was “inactive” each time. Further, the growth inhibition call with S. aureus RN4220 was “inactive”.
`CO[C@H]1O[C@H](CO)[C@@H](OC(=O)c2ccc(Br)cc2)[C@@H]2OC(=O)[C@@H](Cc3ccc4ccccc4c3)C/C=C/C[C@H](Cc3ccc4ccccc4c3)C(=O)O[C@@H]12`: the cytotoxicity call in the test on HSkMC and with HepG2 was “inactive” in each case. For the same molecule, in the test on S. aureus RN4220, the growth inhibition call was “inactive”.
For `C[C@H]1CN([C@@H](C)CO)C(=O)c2cccc(NC(=O)Nc3cccc4ccccc34)c2O[C@@H]1CN(C)C(=O)Nc1ccccc1`, in the test on HSkMC, the cytotoxicity call is “active”. In addition, the cytotoxicity call in the test on HepG2 was “inactive”. Besides, the growth inhibition call in the test with S. aureus RN4220 was “inactive”.
As to `C[C@@H]1CN([C@H](C)CO)C(=O)c2cc(NC(=O)Nc3ccc(C(F)(F)F)cc3)ccc2O[C@@H](C)CCCCO[C@H]1CN(C)S(=O)(=O)c1ccc(Cl)cc1`, the cytotoxicity call with HSkMC and in the test with HepG2 was “inactive” in each case. For the same molecule, the growth inhibition call in the test on S. aureus RN4220 is “inactive”.
Turning to `C[C@@H]1CN([C@H](C)CO)S(=O)(=O)c2ccc(C#CCC3CCCC3)cc2O[C@@H]1CN(C)C(=O)c1cnccn1`, the cytotoxicity call with HSkMC and in the test on HepG2 was “inactive” throughout. In the test with S. aureus RN4220, the growth inhibition call is “inactive”.
For `CCOC(N)=O`, the cytotoxicity call with HSkMC and in the test with HepG2 was “inactive” throughout. In the test with S. aureus RN4220, the growth inhibition call was “inactive”.
For `CN(C)CCCCCCNC(=O)[C@H]1C[C@H]2C(=O)N3CCC[C@H]3C(=O)N2[C@H]1c1cccc(OCCO)c1`, the cytotoxicity call in the test on HSkMC and with HepG2 was “inactive” in each case. The growth inhibition call in the test with S. aureus RN4220 was “inactive”.
Turning to `C[C@H]1CN([C@@H](C)CO)C(=O)c2cc(NS(=O)(=O)c3cn(C)cn3)ccc2O[C@H]1CN(C)C(=O)Nc1ccc(F)cc1`, the cytotoxicity call with HSkMC and with HepG2 was “inactive” throughout. Besides, the growth inhibition call with S. aureus RN4220 was “inactive”.
Consider `C[C@@H]1CCCCO[C@H](CN(C)C(=O)CCC(F)(F)F)[C@H](C)CN([C@H](C)CO)C(=O)c2cc(NC(=O)c3ccccc3)ccc2O1`, for which the cytotoxicity call in the test with HSkMC and in the test with HepG2 was “inactive” throughout. The growth inhibition call in the test on S. aureus RN4220 is “inactive”.
For `CCS(=O)(=O)NCC[C@@H]1CC[C@@H](NC(=O)C2CCOCC2)[C@H](CO)O1`, the cytotoxicity call in the test on HSkMC (human skeletal muscle cells) and with HepG2 was “inactive” throughout. In addition, in the test with S. aureus RN4220, the growth inhibition call was “inactive”.
`COc1ccc(C(=O)CC(=O)c2ccc(C(C)(C)C)cc2)cc1`: in the test with HSkMC, the cytotoxicity call is “active”. Besides, in the test on HepG2, the cytotoxicity call was “inactive”. Moreover, the growth inhibition call with S. aureus RN4220 was “inactive”.
